From patent publication US8304419B2, “Chemical compounds” (priority 2007, dated 2012)

Assays:
Experiment in all cases: microbe, parasite or virus in culture
HIV-1 Y181C RT mutant = conditions: Human immunodeficiency virus 1, HeLa
HIV-1 V106A RT mutant = conditions: Human immunodeficiency virus 1, HeLa
HIV-1 K103N RT mutant = conditions: Human immunodeficiency virus 1, HeLa
HIV-1 Y188L RT mutant = conditions: Human immunodeficiency virus 1, HeLa, read-out: IC50 against Y188L
[1] = read-out: IC50 against Y181C, HeLa cell assay
[2] = read-out: IC50 against V106A, HeLa cell assay
[3] = read-out: IC50 against K103N, HeLa cell assay
[4] = read-out: Y181C activity level, HeLa-CD4-LTR-β-gal cells, Y181C virus
[5] = read-out: V106A activity level, HeLa-CD4-LTR-β-gal cells, V106A virus
[6] = read-out: K103N activity level, HeLa-CD4-LTR-β-gal cells, K103N virus

| Compound | IC50 (HIV-1 Y181C RT mutant; [1]) | IC50 (HIV-1 V106A RT mutant; [2]) | IC50 (HIV-1 K103N RT mutant; [3]) | IC50 (HIV-1 Y188L RT mutant) | IC50 (HIV-1 Y181C RT mutant; [4]) | IC50 (HIV-1 V106A RT mutant; [5]) | IC50 (HIV-1 K103N RT mutant; [6]) |
| --- | --- | --- | --- | --- | --- | --- | --- |
| C=CCc1cc(C#N)cc(Oc2c(Cl)ccc(CNC(=O)c3[nH]cnc3Cl)c2F)c1 [Example 156, 4-chloro-N-[(4-chloro-3-{[3-cyano-5-(2-propen-1-yl)phenyl]oxy}-2-fluorophenyl)methyl]-1′-1H-imidazole-5-carboxamide] | < 10 nM | < 10 nM | < 10 nM | < 10 nM | – | – | – |
| CCc1ccc(CNC(=O)c2[nH]cnc2Cl)c(F)c1Oc1cc(Cl)cc(C#N)c1 [Example 250, 4-chloro-N-({3-[(3-chloro-5-cyanophenyl)oxy]-4-ethyl-2-fluorophenyl}methyl)-1H-imidazole-5-carboxamide] | < 10 nM | < 10 nM | < 10 nM | < 10 nM | – | – | – |
| N#Cc1cc(Cl)cc(Oc2c(Cl)ccc(CNC(=O)c3[nH]cnc3Br)c2F)c1 [Example 133, 4-bromo-N-({4-chloro-3-[(3-chloro-5-cyanophenyl)oxy]-2-fluorophenyl}methyl)-1H-imidazole-5-carboxamide trifluoroacetate] | < 10 nM | < 10 nM | < 10 nM | < 10 nM | < 10 nM | < 10 nM | < 10 nM |
| N#C/C=C/c1cc(Cl)cc(Oc2c(Cl)ccc(CNC(=O)c3[nH]cnc3Cl)c2F)c1 [Example 291, 4-chloro-N-{[4-chloro-3-({3-chloro-5-[(E)-2-cyanoethenyl]phenyl}oxy)-2-fluorophenyl]methyl}-1H-imidazole-5-carboxamide] | < 10 nM | < 10 nM | < 10 nM | < 10 nM | – | – | – |
| CSc1ncc(Cl)c(C(=O)NCc2ccc(Cl)c(Oc3cc(Cl)cc(C#N)c3)c2F)n1 [Example 101, 5-chloro-N-({4-chloro-3-[(3-chloro-5-cyanophenyl)oxy]-2-fluorophenyl}methyl)-2-(methylthio)-4-pyrimidinecarboxamide] | – | – | – | – | > 1000 nM | > 1000 nM | > 1000 nM |
| N#Cc1cc(Cl)cc(Oc2c(Cl)ccc(CNC(=O)c3cc4cc(Cl)ccc4s3)c2F)c1 [Example 51, 5-chloro-N-({4-chloro-3-[(3-chloro-5-cyanophenyl)oxy]-2-fluorophenyl}methyl)-1-benzothiophene-2-carboxamide trifluoroacetate] | – | – | – | – | > 1000 nM | > 1000 nM | > 1000 nM |
| N#Cc1cc(Cl)cc(Oc2c(Cl)ccc(CNC(=O)c3[nH]c4ccccc4c3Br)c2F)c1 [Example 53, 3-bromo-N-({4-chloro-3-[(3-chloro-5-cyanophenyl)oxy]-2-fluorophenyl}methyl)-1H-indole-2-carboxamide] | – | – | – | – | 10 to 1000 nM | 10 to 1000 nM | 10 to 1000 nM |
| COc1ccc2[nH]c(C(=O)NCc3ccc(Cl)c(Oc4cc(Cl)cc(C#N)c4)c3)cc2c1 [Example 10, N-({4-chloro-3-[(3-chloro-5-cyanophenyl)oxy]phenyl}methyl)-5-(methyloxy)-1H-indole-2-carboxamide] | – | – | – | – | > 1000 nM | > 1000 nM | > 1000 nM |
| CC(C)(C)OC(=O)Nc1cccc2cc(C(=O)NCc3ccc(Cl)c(Oc4cc(Cl)cc(C#N)c4)c3F)[nH]c12 [Example 112, 1,1-dimethylethyl (2-{[({4-chloro-3-[(3-chloro-5-cyanophenyl)oxy]-2-fluorophenyl}methyl)amino]carbonyl}-1H-indol-7-yl)carbamate] | – | – | – | – | > 1000 nM | > 1000 nM | 10 to 1000 nM |
| Cc1c(C(=O)NCc2ccc(Cl)c(Oc3cc(Cl)cc(C#N)c3)c2F)oc2ccccc12 [Example 48, N-({4-chloro-3-[(3-chloro-5-cyanophenyl)oxy]-2-fluorophenyl}methyl)-3-methyl-1-benzofuran-2-carboxamide trifluoroacetate] | – | – | – | – | 10 to 1000 nM | 10 to 1000 nM | 10 to 1000 nM |
| N#Cc1cc(Cl)cc(Oc2c(Cl)ccc(CNC(=O)c3cc4ccc(O)cc4[nH]3)c2F)c1 [Example 36, N-({4-chloro-3-[(3-chloro-5-cyanophenyl)oxy]-2-fluorophenyl}methyl)-6-hydroxy-1H-indole-2-carboxamide] | – | – | – | – | < 10 nM | < 10 nM | < 10 nM |
| N#Cc1cc(Cl)cc(Oc2c(Cl)ccc(CNC(=O)c3cc4cc([N+](=O)[O-])ccc4[nH]3)c2F)c1 [Example 19, N-({4-chloro-3-[(3-chloro-5-cyanophenyl)oxy]-2-fluorophenyl}methyl)-5-nitro-1H-indole-2-carboxamide] | – | – | – | – | 10 to 1000 nM | 10 to 1000 nM | 10 to 1000 nM |
| Cc1c(C(=O)NCc2ccc(Cl)c(Oc3cc(Cl)cc(C#N)c3)c2F)[nH]c2ccccc12 [Example 39, N-({4-chloro-3-[(3-chloro-5-cyanophenyl)oxy]-2-fluorophenyl}methyl)-3-methyl-1H-indole-2-carboxamide] | – | – | – | – | 10 to 1000 nM | 10 to 1000 nM | 10 to 1000 nM |
| N#Cc1cc(Cl)cc(Oc2c(Cl)ccc(CNC(=O)c3cc4cc(N(CC5CC5)CC5CC5)ccc4[nH]3)c2F)c1 [Example 127, 5-[bis(cyclopropylmethyl)amino]-N-({4-chloro-3-[(3-chloro-5-cyanophenyl)oxy]-2-fluorophenyl}methyl)-1H-indole-2-carboxamide] | – | – | – | – | 10 to 1000 nM | 10 to 1000 nM | 10 to 1000 nM |
| N#Cc1cc(Cl)cc(Oc2c(Cl)ccc(CNC(=O)c3cc4ccc(OCc5ccccc5)cc4[nH]3)c2F)c1 [Example 43, N-({4-chloro-3-[(3-chloro-5-cyanophenyl)oxy]-2-fluorophenyl}methyl)-6-[(phenylmethyl)oxy]-1H-indole-2-carboxamide] | – | – | – | – | > 1000 nM | > 1000 nM | 10 to 1000 nM |
| N#Cc1cc(Cl)cc(Oc2c(Cl)ccc(CNC(=O)c3cc4cc([N+](=O)[O-])ccc4o3)c2F)c1 [Example 50, N-({4-chloro-3-[(3-chloro-5-cyanophenyl)oxy]-2-fluorophenyl}methyl)-5-nitro-1-benzofuran-2-carboxamide trifluoroacetate] | – | – | – | – | > 1000 nM | > 1000 nM | 10 to 1000 nM |
| N#Cc1cc(Cl)cc(Oc2c(Cl)ccc(CNC(=O)c3cc4cc(Cl)ccc4o3)c2F)c1 [Example 49, 5-chloro-N-({4-chloro-3-[(3-chloro-5-cyanophenyl)oxy]-2-fluorophenyl}methyl)-1-benzofuran-2-carboxamide trifluoroacetate] | – | – | – | – | > 1000 nM | > 1000 nM | > 1000 nM |
| CS(=O)(=O)c1ccc(C(=O)NCc2ccc(Cl)c(Oc3cc(Cl)cc(C#N)c3)c2F)cc1 [Example 92, N-({4-chloro-3-[(3-chloro-5-cyanophenyl)oxy]-2-fluorophenyl}methyl)-4-(methylsulfonyl)benzamide] | – | – | – | – | 10 to 1000 nM | 10 to 1000 nM | 10 to 1000 nM |
| N#Cc1cc(Cl)cc(Oc2c(Cl)ccc(CNC(=O)c3cc4ccccc4o3)c2F)c1 [Example 47, N-({4-chloro-3-[(3-chloro-5-cyanophenyl)oxy]-2-fluorophenyl}methyl)-1-benzofuran-2-carboxamide trifluoroacetate] | – | – | – | – | 10 to 1000 nM | > 1000 nM | 10 to 1000 nM |
| N#Cc1cc(Cl)cc(Oc2c(Cl)ccc(CNC(=O)c3[nH]c(C4CC4)nc3Cl)c2F)c1 [Example 136, 4-chloro-N-({4-chloro-3-[(3-chloro-5-cyanophenyl)oxy]-2-fluorophenyl}methyl)-2-cyclopropyl-1H-imidazole-5-carboxamide trifluoroacetate] | – | – | – | – | < 10 nM | < 10 nM | < 10 nM |
| COc1n[n+]([O-])cc2cc(C(=O)NCc3ccc(Cl)c(Oc4cc(Cl)cc(C#N)c4)c3F)[nH]c12 [Example 82, N-({4-chloro-3-[(3-chloro-5-cyanophenyl)oxy]-2-fluorophenyl}methyl)-7-(methyloxy)-1H-pyrrolo[2,3-d]pyridazine-2-carboxamide 5-oxide trifluoroacetate] | – | – | – | – | > 1000 nM | > 1000 nM | > 1000 nM |
| N#Cc1cc(Cl)cc(Oc2c(Cl)ccc(CNC(=O)c3cc4cc(OCC(CO)CO)ccc4[nH]3)c2F)c1 [Example 22, N-({4-chloro-3-[(3-chloro-5-cyanophenyl)oxy]-2-fluorophenyl}methyl)-5-{[3-hydroxy-2-(hydroxymethyl)propyl]oxy}-1H-indole-2-carboxamide] | – | – | – | – | < 10 nM | 10 to 1000 nM | < 10 nM |
| COc1ccc2[nH]c3c(c2c1)CCN(Cc1ccc(Cl)c(Oc2cc(Cl)cc(C#N)c2)c1F)C3=O [Example 38, 3-chloro-5-[(6-chloro-2-fluoro-3-{[6-(methyloxy)-1-oxo-1,3,4,9-tetrahydro-2H-β-carbolin-2-yl]methyl}phenyl)oxy]benzonitrile] | – | – | – | – | 10 to 1000 nM | 10 to 1000 nM | 10 to 1000 nM |
| COc1ccc2c(C(=O)NCc3ccc(Cl)c(Oc4cc(Cl)cc(C#N)c4)c3F)c[nH]c2c1 [Example 18, N-({4-chloro-3-[(3-chloro-5-cyanophenyl)oxy]-2-fluorophenyl}methyl)-6-(methyloxy)-1H-indole-3-carboxamide] | – | – | – | – | > 1000 nM | > 1000 nM | > 1000 nM |
| COc1ccc(C(=O)NCc2ccc(Cl)c(Oc3cc(Cl)cc(C#N)c3)c2F)c(C)c1 [Example 17, N-({4-chloro-3-[(3-chloro-5-cyanophenyl)oxy]-2-fluorophenyl}methyl)-2-methyl-4-(methyloxy)benzamide] | – | – | – | – | 10 to 1000 nM | 10 to 1000 nM | 10 to 1000 nM |
| N#Cc1cc(Cl)cc(Oc2c(Cl)ccc(CNC(=O)c3nc4ccc([N+](=O)[O-])cc4[nH]3)c2F)c1 [Example 124, N-({4-chloro-3-[(3-chloro-5-cyanophenyl)oxy]-2-fluorophenyl}methyl)-5-nitro-1H-benzimidazole-2-carboxamide] | – | – | – | – | 10 to 1000 nM | 10 to 1000 nM | 10 to 1000 nM |

Counter-ions that a name gives are not always drawn. Like-named read-outs stand apart in the source and are kept apart here.
